{"source": "ChEMBL document CHEMBL5291721", "about": "“A preclinical secondary pharmacology resource illuminates target-adverse drug reaction associations of marketed drugs” (Nat Commun, 2023); also: assay procedure not described here", "key": {"[1]": {"molecular_target": "Beta-1 adrenergic receptor (Homo sapiens, UniProt P08588)", "type": "functional"}, "[2]": {"molecular_target": "Beta-3 adrenergic receptor (Homo sapiens, UniProt P13945)"}, "[3]": {"molecular_target": "5-hydroxytryptamine receptor 2C (Homo sapiens, UniProt P28335)"}, "[4]": {"molecular_target": "Kappa-type opioid receptor (Homo sapiens, UniProt P41145)"}, "[5]": {"molecular_target": "T1, D(3) dopamine receptor (Homo sapiens, UniProt P35462)"}, "[6]": {"molecular_target": "T2, Histamine H3 receptor (Homo sapiens, UniProt Q9Y5N1)"}, "[7]": {"molecular_target": "Voltage-dependent N-type calcium channel subunit alpha-1B (Rattus norvegicus, UniProt Q02294)", "type": "functional"}, "[8]": {"molecular_target": "Hydroxycarboxylic acid receptor 2 (Homo sapiens, UniProt Q8TDS4)"}, "[9]": {"molecular_target": "Sodium channel protein type 5 subunit alpha (Homo sapiens, UniProt Q14524)", "type": "functional, cell-based"}, "[10]": {"molecular_target": "Synaptic vesicular amine transporter (Rattus norvegicus, UniProt Q01827)", "type": "functional"}, "[11]": {"molecular_target": "T3, Sodium-dependent noradrenaline transporter (Homo sapiens, UniProt P23975)"}, "[12]": {"molecular_target": "T4, Sodium-dependent dopamine transporter (Homo sapiens, UniProt Q01959)"}, "[13]": {"molecular_target": "T4, Sodium-dependent dopamine transporter", "remark": "listed apart in the source"}, "[14]": {"molecular_target": "T3, Sodium-dependent noradrenaline transporter", "remark": "listed apart in the source"}, "[15]": {"molecular_target": "Androgen receptor (Rattus norvegicus, UniProt P15207)", "type": "functional"}, "[16]": {"molecular_target": "5-hydroxytryptamine receptor 2B (Homo sapiens, UniProt P41595)", "type": "functional, cell-based"}, "[17]": {"molecular_target": "Progesterone receptor (Homo sapiens, UniProt P06401)", "type": "functional"}, "[18]": {"molecular_target": "Prostaglandin G/H synthase 1 (Rattus norvegicus, UniProt Q63921)", "type": "functional"}, "[19]": {"molecular_target": "Sodium-dependent serotonin transporter (Homo sapiens, UniProt P31645)"}, "[20]": {"molecular_target": "Bile salt export pump (Homo sapiens, UniProt O95342)", "type": "functional"}, "[21]": {"molecular_target": "Adenosine receptor A3 (Homo sapiens, UniProt P0DMS8)"}, "[22]": {"molecular_target": "Alpha-2A adrenergic receptor (Homo sapiens, UniProt P08913)"}, "[23]": {"molecular_target": "T1, D(3) dopamine receptor", "remark": "listed apart in the source"}, "[24]": {"molecular_target": "T2, Histamine H3 receptor", "remark": "listed apart in the source"}, "[25]": {"molecular_target": "T5, Mu-type opioid receptor (Homo sapiens, UniProt P35372)"}, "[26]": {"molecular_target": "5-hydroxytryptamine receptor 2A (Homo sapiens, UniProt P28223)", "type": "functional, cell-based"}, "[27]": {"molecular_target": "Estrogen receptor (Homo sapiens, UniProt P03372)"}, "[28]": {"molecular_target": "T6, Type-1 angiotensin II receptor (Homo sapiens, UniProt P30556)"}, "[29]": {"molecular_target": "T6, Type-1 angiotensin II receptor", "remark": "listed apart in the source"}, "[30]": {"molecular_target": "5-hydroxytryptamine receptor 3A (Homo sapiens, UniProt P46098)", "type": "functional"}, "[31]": {"molecular_target": "Voltage-gated inwardly rectifying potassium channel KCNH2 (Homo sapiens, UniProt Q12809)", "type": "functional"}, "[32]": {"molecular_target": "Delta-type opioid receptor (Homo sapiens, UniProt P41143)"}, "[33]": {"molecular_target": "3',5'-cyclic-AMP phosphodiesterase 4D (Homo sapiens, UniProt Q08499)", "type": "functional"}, "[34]": {"molecular_target": "T5, Mu-type opioid receptor", "remark": "listed apart in the source"}, "[35]": {"molecular_target": "cGMP-inhibited 3',5'-cyclic phosphodiesterase 3A (Homo sapiens, UniProt Q14432)", "type": "functional"}}, "data": [{"smiles": "CCCCc1oc2ccccc2c1C(=O)c1cc(I)c(OCCN(CC)CC)c(I)c1", "note": "[AMIODARONE]", "values": [{"measurement": "AC50", "setting": "[1]", "result": 2.9, "unit": "µM"}, {"measurement": "AC50", "setting": "[2]", "result": 23.9, "unit": "µM"}, {"measurement": "AC50", "setting": "[3]", "result": 4.1, "unit": "µM"}, {"measurement": "AC50", "setting": "[4]", "result": 9.27, "unit": "µM"}, {"measurement": "AC50", "setting": "[5]", "result": 1.5, "unit": "µM"}, {"measurement": "AC50", "setting": "[6]", "result": 2.39, "unit": "µM"}]}, {"smiles": "O=C1CCc2ccc(OCCCCN3CCN(c4cccc(Cl)c4Cl)CC3)cc2N1", "note": "[ARIPIPRAZOLE]", "values": [{"measurement": "AC50", "setting": "[2]", "result": 6.77, "unit": "µM"}, {"measurement": "AC50", "setting": "[7]", "result": "> 10", "unit": "µM"}, {"measurement": "AC50", "setting": "[8]", "result": "> 10", "unit": "µM"}, {"measurement": "AC50", "setting": "[4]", "result": 18, "unit": "µM"}, {"measurement": "AC50", "setting": "[9]", "result": "> 50", "unit": "µM"}, {"measurement": "AC50", "setting": "[10]", "result": 0.0066, "unit": "µM"}, {"measurement": "AC50", "setting": "[11]", "result": 1.56, "unit": "µM"}, {"measurement": "AC50", "setting": "[12]", "result": 0.289, "unit": "µM"}, {"measurement": "AC50", "setting": "[13]", "result": 3.46, "unit": "µM"}, {"measurement": "AC50", "setting": "[14]", "result": 5.67, "unit": "µM"}]}, {"smiles": "COc1cc(OC)cc(N(CCNC(C)C)c2ccc3ncc(-c4cnn(C)c4)nc3c2)c1", "note": "[ERDAFITINIB]", "values": [{"measurement": "AC50", "setting": "[15]", "result": "> 30", "unit": "µM"}, {"measurement": "AC50", "setting": "[16]", "result": "> 30", "unit": "µM"}, {"measurement": "AC50", "setting": "[17]", "result": "> 30", "unit": "µM"}, {"measurement": "AC50", "setting": "[18]", "result": "> 30", "unit": "µM"}, {"measurement": "AC50", "setting": "[19]", "result": 2.3, "unit": "µM"}]}, {"smiles": "CCN(CC)CC#CCOC(=O)C(O)(c1ccccc1)C1CCCCC1", "note": "(stereo unspecified) [OXYBUTYNIN]", "values": [{"measurement": "AC50", "setting": "[20]", "result": 37, "unit": "µM"}, {"measurement": "AC50", "setting": "[21]", "result": 19.6, "unit": "µM"}, {"measurement": "AC50", "setting": "[22]", "result": 24.5, "unit": "µM"}, {"measurement": "AC50", "setting": "[23]", "result": 0.0996, "unit": "µM"}, {"measurement": "AC50", "setting": "[24]", "result": 24.6, "unit": "µM"}, {"measurement": "AC50", "setting": "[25]", "result": 23.4, "unit": "µM"}, {"measurement": "AC50", "setting": "[11]", "result": 3.08, "unit": "µM"}, {"measurement": "AC50", "setting": "[12]", "result": 0.0895, "unit": "µM"}]}, {"smiles": "[H]/N=C(/N)N/C(=N/[H])NCCc1ccccc1", "note": "[PHENFORMIN]", "values": [{"measurement": "AC50", "setting": "[26]", "result": "> 10", "unit": "µM"}]}, {"smiles": "CN1CCN(CCCN2c3ccccc3Sc3ccc(Cl)cc32)CC1", "note": "[PROCHLORPERAZINE]", "values": [{"measurement": "AC50", "setting": "[27]", "result": "> 20", "unit": "µM"}]}, {"smiles": "CC(C)NCC(O)COc1cccc2ccccc12", "note": "(stereo unspecified) [PROPRANOLOL]", "values": [{"measurement": "AC50", "setting": "[28]", "result": 20.6, "unit": "µM"}, {"measurement": "AC50", "setting": "[29]", "result": "> 100", "unit": "µM"}]}, {"smiles": "CCN(Cc1ccncc1)C(=O)C(CO)c1ccccc1", "note": "(stereo unspecified) [TROPICAMIDE]", "values": [{"measurement": "AC50", "setting": "[3]", "result": "> 30", "unit": "µM"}, {"measurement": "AC50", "setting": "[30]", "result": "> 30", "unit": "µM"}, {"measurement": "AC50", "setting": "[31]", "result": "> 30", "unit": "µM"}, {"measurement": "AC50", "setting": "[32]", "result": "> 30", "unit": "µM"}, {"measurement": "AC50", "setting": "[33]", "result": "> 30", "unit": "µM"}, {"measurement": "AC50", "setting": "[34]", "result": "> 30", "unit": "µM"}, {"measurement": "AC50", "setting": "[35]", "result": "> 30", "unit": "µM"}, {"measurement": "AC50", "setting": "[5]", "result": "> 30", "unit": "µM"}]}]}
